Laboratory results taken from PubChem BioAssay AID1030 (National Center for Advancing Translational Sciences (NCATS), 2008).
About 16,000 (7.3%) of roughly 220,000 compounds were called active. This list was built around the results that the source calls inconclusive (neither active nor inactive); the mix of calls is not that of the screen. Calls come from the whole dose curve; as a rule, active = well fitted inhibition curve with a large enough effect (not every such curve was filed as active); inconclusive = small, poorly fitted or top-dose-only effect, or another doubt; inactive = no such curve, though single readings can be large or run the other way. Potencies of inconclusive entries are left out as doubtful fits.

The compounds below were run against Aldehyde dehydrogenase 1A1 (Homo sapiens) (UniProt P00352) (assay: qHTS Assay for Inhibitors of Aldehyde Dehydrogenase 1 (ALDH1A1)). Details: Purified ALDH1A1, NADH fluorescence, propionaldehyde substrate; series mostly up to 75.3 µM; activity, negative = inhibition: at the top concentration.
UniProt P00352, sequence (P00352 whole entry, looked up): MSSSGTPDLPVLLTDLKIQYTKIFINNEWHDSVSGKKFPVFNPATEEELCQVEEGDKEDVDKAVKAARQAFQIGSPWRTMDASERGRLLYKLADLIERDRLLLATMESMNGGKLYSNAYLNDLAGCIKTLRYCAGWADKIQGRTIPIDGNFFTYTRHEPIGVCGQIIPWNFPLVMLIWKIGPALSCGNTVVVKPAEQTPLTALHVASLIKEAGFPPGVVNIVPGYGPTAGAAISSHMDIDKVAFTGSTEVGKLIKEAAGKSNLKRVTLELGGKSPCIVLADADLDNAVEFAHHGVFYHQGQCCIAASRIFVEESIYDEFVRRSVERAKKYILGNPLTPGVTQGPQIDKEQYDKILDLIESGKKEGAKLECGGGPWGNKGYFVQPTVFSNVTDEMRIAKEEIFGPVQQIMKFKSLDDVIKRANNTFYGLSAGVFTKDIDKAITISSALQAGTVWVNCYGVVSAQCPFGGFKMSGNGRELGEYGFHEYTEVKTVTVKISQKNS
Potency is the fitted concentration of half-maximal effect; tags give direction and shape of the fitted curve.
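Throughout, for activity, negative = inhibition: plate controls were no enzyme wells and a reference inhibitor.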

SMILES | Potency | activity, negative = inhibition
O=C1CC(C(=O)Nc2ncccn2)C(c2ccccc2)O1 (stereo unspecified) | inconclusive [inhibitor, single point] | –
COc1ccc(CCn2c(=S)[nH]c3ccc(N4CCOCC4)cc3c2=O)cc1OC | inconclusive [inhibitor, partial curve] | –
COc1ccc(/C=C/C(=O)NCC2COc3ccccc3O2)cc1OC (stereo unspecified) | inconclusive [inhibitor, partial curve] | –
C=CCCC(=O)Nc1nc(C)c(-c2csc(Nc3ccccc3OC)n2)s1 | – | inactive: -10.2%
COc1ccc(CCNC(=O)COC(=O)/C=C/c2cccs2)cc1OC | – | inactive: 4.49%
COc1ccc(S(=O)(=O)Nc2ccc(C)cc2)cc1N(C)S(=O)(=O)c1ccc(Cl)cc1 | inconclusive [inhibitor, partial curve] | –
COc1cccc(CC2(CO)CCN(Cc3ccc4cccc(F)c4n3)CC2)c1 | – | inactive: 1.87%
CN(c1nc2ccccc2n2c(-c3ccco3)nnc12)S(=O)(=O)c1ccccc1 | inconclusive [inhibitor, partial curve] | –
Cc1cc(C)cc(OCC(=O)NCCc2nc3ccccc3[nH]2)c1 | – | inactive: -8.04%
COc1ccc(/C(C#N)=C/c2c(-c3ccc(Cl)cc3)nc3c(C)cccn23)cc1 | – | inactive: 9.65%
CN(Cc1ccco1)c1cc(-c2ccccc2C(F)(F)F)ncn1 | inconclusive [inhibitor, single point] | –
COc1ccc(C(=O)N2CCN(C(=O)Cc3ccccc3)CC2)cc1 | inconclusive [inhibitor, single point] | –
CCCC(=O)Nc1nc(C)c(-c2csc(Nc3ccccc3C)n2)s1 | active: 10 µM | –
COc1ccc(/C(C)=N/Nc2cccc(C(=O)O)c2)cc1OC | inconclusive [inhibitor, single point] | –
O=C(COC(=O)c1ccc2c(c1)S(=O)(=O)c1ccccc1C2=O)NC1CC1 | active: 14.1 µM | –
COc1ccc(C(=O)Cn2nnc(-c3ccccc3NC(=O)c3ccco3)n2)cc1 | inconclusive [inhibitor, partial curve] | –
CN(Cc1ccccc1)C(=O)c1ccc2c(c1)OCCO2 | inconclusive [inhibitor, single point] | –
Cc1ccccc1N(CC(=O)NC1CCCC1)C(=O)C1(C)CC(=O)N=C2C=CC=CN21 (stereo unspecified) | inconclusive [inhibitor, partial curve] | –

SMILES | Potency | activity, negative = inhibition
Cc1cc(N(CC(=O)NC(C)C)S(C)(=O)=O)ccc1Br | – | inactive: 6.74%
O=C1N(CN2C(=O)C3(OCCO3)c3ccccc32)c2ccccc2C12OCCO2 | inconclusive [inhibitor, single point] | –
COc1ccc(-c2c3c(=O)n(C)c(=O)n(C)c3cn2-c2cccc(OC)c2)cc1 | inconclusive [inhibitor, partial curve] | –
COc1cc(-c2nc(S(=O)(=O)c3ccc(Cl)cc3)c(N(C)C)o2)cc(OC)c1OC | inconclusive [inhibitor, partial curve, poor fit] | –
CC[C@H]1C(c2cccc(Cl)c2)=NN(c2ccccc2)[C@@H]1CO | inconclusive [inhibitor, partial curve] | –
CC(C)C[C@H](NC(=O)[C@H](O)[C@H](N)Cc1ccccc1)C(=O)O | – | inactive: 7.09%
CCn1c(=O)n(CC)c2cc(S(=O)(=O)Nc3c(C)cccc3C)ccc21 | inconclusive [inhibitor, partial curve] | –
CCOC(=O)c1cc2c(C)[nH]c(C)c2cc(C(=O)OCC)c1=O | active: 25.1 µM | –
CCOC(=O)c1c(-c2ccc(C)cc2)csc1NC(=O)c1ccc(N2C(=O)CCC2=O)cc1 | inconclusive [inhibitor, single point] | –
COc1ccc(/C=C/C(=O)Nc2ccccc2C(F)(F)F)cc1OC | – | inactive: 6.64%
N#Cc1cc2c(OCC(O)CN3CCN(C(c4ccccc4)c4ccccc4)CC3)cccc2[nH]1 (stereo unspecified) | – | inactive: -0.346%
CCC(=O)c1ccccc1OCCSc1nc(C)cc(=O)[nH]1 | inconclusive [inhibitor, partial curve] | –
COc1ccc(CN(C(=O)/C=C/c2ccco2)C2CCS(=O)(=O)C2)cc1 (stereo unspecified) | active: 14.1 µM | –
O=C(NCC1CCCO1)NC1CCCCC1 (stereo unspecified) | – | inactive: 11%
C=CCn1c(SCC(=O)NCCCC)nc2scc(-c3ccco3)c2c1=O | active: 20 µM | –
CCc1c(C)sc(NC(=O)c2ccccc2[N+](=O)[O-])c1C(N)=O | inconclusive [inhibitor, single point] | –
COc1ccc(-n2ncc3c(NCc4ccc5c(c4)OCO5)ncnc32)cc1 | inconclusive [inhibitor, partial curve] | –
Cc1cc(=O)oc2cc(OCCCC[n+]3ccccc3)ccc12 | inconclusive [inhibitor, single point] | –
